# Experimental data taken from PubChem BioAssay AID1458 (National Center for Advancing Translational Sciences (NCATS), 2008).
# About 5,900 (2.8%) of roughly 210,000 compounds were called active. The inconclusive results got no clear call from the source; some entries with a clear call stand among them for comparison. Calls come from the whole dose curve; as a rule, active = well fitted activation curve with a large enough effect; inconclusive = small, poorly fitted or top-dose-only effect; inactive = no such curve, though single readings can be large or run the other way. Potencies of inconclusive entries are doubtful fits and often do not repeat.
# Assay: qHTS Assay for Enhancers of SMN2 Splice Variant Expression; note: nearly all actives have a fitted effect of over 55% in size; for activity change, positive = activation: % of control where 0% means no effect
# Conditions: HEK293 SMN2-luciferase splicing reporter, luminescence, 30-36 h; activity change, positive = activation: at 46.1 µM (top of the series)
# Method in brief: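 HEK293 cells carry an SMN2 […]–luciferase reporter in which exon 7 inclusion puts luciferase in frame. Cells were plated 10-12 h before compound addition, then incubated 30-36 h at 37C. ONE-Glo luminescence was read; sodium butyrate at 4.5 mM final served as control.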
# Potency is the fitted concentration of half-maximal effect; tags give direction and shape of the fitted curve.
Compound,"activity change, positive = activation",Potency
Cc1cc2nc(CSc3ccc(Cl)cc3)cc(=O)n2[nH]1,inactive: 11.8%,–
c1csc(C2Nc3ccccc3-c3nc4ccccc4n32)c1 (centres undefined),–,"inconclusive: 12.6 µM [activator, partial curve, poor fit]"
CC1(C)Cc2c(ccc3ccccc23)C(c2cc3ccccc3oc2=O)=N1,–,"inconclusive: 35.5 µM [activator, partial curve]"
Cc1cccn2c(=O)c(/C=C(\C#N)c3nc4ccccc4n3C)c(Oc3ccc(Cl)cc3)nc12,–,"inconclusive: 3.98 µM [activator, single point]"
NS(=O)(=O)c1ccc(CCNC(=O)COC(=O)CCSc2ccc(Cl)cc2)cc1,–,"inconclusive: 1.41 µM [activator, partial curve]"
CCOc1ccc(C(=O)Nc2cc(C)ccn2)cc1,–,"inconclusive: 1.26 µM [activator, single point]"
O=C(/C=C/Nc1ccccc1C(F)(F)F)c1ccco1,–,active: 10 µM
CC(C)c1ccc(NC(=O)COc2ccccn2)cc1,–,"inconclusive: 35.5 µM [activator, single point]"
CC(C)(C)c1ccc(COC(=O)Nc2ccc(F)cc2)cc1,–,"inconclusive: 35.5 µM [activator, single point]"
O=C(Cc1cccs1)N1CCN(C(=O)C2CCCO2)CC1 (centres undefined),–,"inconclusive: 5.62 µM [activator, single point]"
CC(=NCc1cccnc1)C1=C(O)c2ccccc2C1=O,–,"inconclusive: 0.0032 µM [activator, full curve, poor fit]"
COc1cccc(C(=O)Nc2ccc(F)c(F)c2F)c1,–,"inconclusive: 35.5 µM [activator, single point]"
O=C(COC(=O)c1cncc(Br)c1)NC1CCCCCC1,inactive: 2.66%,–
Cc1cc(C)nc(NS(=O)(=O)c2ccc(Br)s2)c1,–,"inconclusive: 0.01 µM [activator, full curve, poor fit]"
CC1CCN(S(=O)(=O)c2ccc(S(=O)(=O)NCc3ccccc3)cc2)CC1,–,"inconclusive: 5.01 µM [activator, full curve]"
C/C(=N\Nc1nc(-c2ccccc2)cs1)c1cccs1,–,active: 2.82 µM
Cc1cccc(C(=O)Nc2ccc(N3CCN(S(C)(=O)=O)CC3)cc2)c1,–,"inconclusive: 3.16 µM [activator, single point]"
O=c1c2ccccc2c2ccccc2c(=O)n1-c1cc2c3ccccc3ccc2c2ccccc12,inactive: -10.5% [at 9.22 µM],–
S=C(Nc1ccccc1)c1ccccn1,–,"inconclusive: 31.6 µM [activator, single point]"
Cc1ccc(NC(=O)CCNC(=O)c2ccccc2Cl)cc1S(=O)(=O)N(C)C,–,"inconclusive: 0.1 µM [activator, full curve, poor fit]"
CCn1nnnc1SCC(=O)Nc1ccc2c(c1)OCCO2,–,active: 11.2 µM
CS(=O)(=O)N1CCc2cc(C(=O)NC3CC3)ccc21,inactive: 0.805%,–
O=C(NCc1ccco1)c1cccn2c(=O)c3c4c(sc3nc12)CCCC4,inactive: -28.6%,–
COc1cccc(Cn2cnc3c2c(=O)n(C)c(=O)n3C)c1,inactive: -0.739%,–
Cc1cc(C)cc(Oc2ccccc2/C=N\O)c1,inactive: 10.1%,–

Compound,"activity change, positive = activation",Potency
CN(C)C(=O)CN(c1ccc2c(c1)OCO2)S(C)(=O)=O,–,"inconclusive: 0.0126 µM [activator, full curve, poor fit]"
CCOC(=O)Cn1c(-c2nonc2NC(=O)c2ccccc2F)nc2ccccc21,–,"inconclusive: 3.98 µM [activator, full curve, poor fit]"
Cc1cccc(NC(=O)CSc2nnc3c4ccccc4n(C)c3n2)c1,inactive: -11.9%,–
O=C(NCC1CCCCC1)c1nnc(C(=O)NCC2CCCCC2)c2c1[nH]c1ccccc12,inactive: -2.44%,–
COc1ccc(N2CC(NC(=O)NCCC(C)C)CC2=O)cc1 (centres undefined),–,"inconclusive: 3.98 µM [activator, single point]"
Cc1nc2ccc(NC(=O)c3ccc4ccccc4n3)cc2s1,–,active: 35.5 µM
Cc1cc(C)nc(NC(=O)Cc2cccs2)n1,–,"inconclusive: 0.005 µM [activator, full curve]"
O=C(NCc1ccccc1)NC1CC2CCC(C1)N2Cc1ccco1 (centres undefined),–,"inconclusive: 0.01 µM [activator, full curve, poor fit]"
Cc1ccc(CC(=O)Nc2ccc(F)c([N+](=O)[O-])c2)cc1C,inactive: -1.95%,–
Cc1[nH]n(-c2ccccc2)c(=O)c1N=Nc1ccc2c(c1)OCO2,–,active: 17.8 µM
Cc1cc(NC(=O)c2cc(C(C)C)on2)no1,–,"inconclusive: 6.31 µM [activator, partial curve, poor fit]"
Cn1nnnc1SCCNCc1ccccc1F,–,"inconclusive: 7.94 µM [activator, partial curve, poor fit]"
CN(C)c1ccc(C(CNS(=O)(=O)c2ccc3ccccc3c2)c2c[nH]c3ccccc23)cc1 (centres undefined),–,"inconclusive: 3.16 µM [activator, single point]"
COc1ccc(-c2csc(N3CCOCC3)n2)cc1OC,–,"inconclusive: 20 µM [activator, single point]"
ClC/C=C/CCl,inactive: 0.901%,–
O=C(/C=C/c1ccccc1Cl)N(Cc1ccc(Cl)cc1)C1CCS(=O)(=O)C1 (centres undefined),–,"inconclusive: 4.47 µM [activator, single point]"
COC1=C(OC)C(=O)C(C/C=C(\C)CC/C=C(\C)CC/C=C(\C)CC/C=C(/C)CC/C=C(\C)CC/C=C(\C)CC/C=C(\C)CC/C=C(\C)CC/C=C(\C)CCC=C(C)C)=C(C)C1=O,inactive: 2.03%,–
Cn1c(=O)c(C(=O)COc2ccc(F)cc2Cl)c(N)n(Cc2ccccc2)c1=O,inactive: -22.3%,–
c1ccc(Cn2nnc3c(NCc4ccc5c(c4)OCO5)nc(C4CC4)nc32)cc1,–,"inconclusive: 20 µM [activator, partial curve, poor fit]"
O=C(Nc1cccnc1)c1sc2cccc(F)c2c1Cl,–,"inconclusive: 35.5 µM [activator, single point]"
Cc1cnc(NC(=O)c2c(O)c3cccc4c3n(c2=O)CCC4)s1,–,"inconclusive: 0.891 µM [activator, full curve, poor fit]"
O=C(CSCc1ccccc1Cl)Nc1c[nH]c(=O)[nH]c1=O,inconclusive: 45.4% [activator],–
CCC(CC)C(=O)N1CCCC(c2nc(-c3cccs3)no2)C1 (centres undefined),inactive: 13.7%,–
CC(C)Oc1cccc(-c2cc(C(=O)N3CCN(S(C)(=O)=O)CC3)c3ccccc3n2)c1,–,"inconclusive: 7.94 µM [activator, partial curve]"
O=C(COC(=O)Cn1cnc2ccccc2c1=O)NCC12CC3CC(CC(C3)C1)C2,–,"inconclusive: 6.31 µM [activator, full curve, poor fit]"

Compound,"activity change, positive = activation",Potency
CC(C)(C)c1ccc(C(=O)Nc2cnccn2)cc1,–,active: 28.2 µM
Clc1cccc(CSc2ncn(-c3ccccc3)n2)c1,–,"inconclusive: 22.4 µM [activator, single point]"
Cc1c(C(=O)NCc2cccs2)oc2ccc(S(=O)(=O)N3CCOCC3)cc12,–,"inconclusive: 0.0224 µM [activator, full curve, poor fit]"
CCc1ccc(NC(=O)C2CCN(S(=O)(=O)c3c(C)noc3/C=C\c3ccc(OC)cc3)CC2)cc1,inactive: 0.0986%,–
Fc1cccc(/C=N/Nc2ccccn2)c1,–,"inconclusive: 35.5 µM [activator, single point]"
N#Cc1cccc(-c2nnc(SCc3ccccc3C#N)o2)c1,–,"inconclusive: 7.94 µM [activator, partial curve]"
COc1ccc(OC)c(/C=N/NC(=O)CNC(=O)c2ccc(S(=O)(=O)N3CCCC3)cc2)c1,–,"inconclusive: 3.16 µM [activator, single point]"
CCOC(=O)/C(C#N)=C/Nc1ccccc1OC,–,"inconclusive: 35.5 µM [activator, single point]"
COCCn1c(C)cc(C2=NNC(=Nc3ccccc3F)SC2)c1C,inactive: -31%,–
Cn1c(=O)c2c(nc(SCC(=O)N3CCc4ccccc43)n2Cc2ccccc2)n(C)c1=O,–,"inconclusive: 0.891 µM [activator, partial curve]"
CS/C(=N\S(=O)(=O)c1ccc(Cl)cc1)c1ccccc1,–,"inconclusive: 5.62 µM [activator, single point]"
Cc1nn(C)c(C(=O)N/N=C/c2ccc(Br)cc2)c1Cl,inactive: 0.966%,–
N#Cc1ccc(/C=N/NC(=O)c2cc(-c3cccs3)nc3ccccc23)cc1,inactive: 6.81%,–
O=c1[nH]cnc2cc(-c3ccccc3)sc12,–,"inconclusive: 12.6 µM [activator, partial curve]"
O=C(NC(=S)Nc1ccccc1N1CCOCC1)c1sc2ccccc2c1Cl,inactive: -35.4%,–
COc1ccc(C(=O)CSc2ccc(-c3ccc(C)cc3)nn2)cc1,–,active: 14.1 µM
COc1ccccc1/C=N/NC(=O)c1ccc(Br)cc1,inactive: 6.6%,–
O=C(Nc1ccc2c(c1)nc1n2CCOC1)c1ccco1,–,"inconclusive: 22.4 µM [activator, single point]"
O=C1c2sc3nc4ccccc4n3c2C(=O)N1c1ccccc1Cl,–,"inconclusive: 35.5 µM [activator, single point]"
O=C(Nc1nc(=O)c2ccccc2s1)c1ccc(F)cc1,–,active: 14.1 µM
COc1ccc2oc(=O)c(C(=O)NCCc3c(C)[nH]c4ccc(F)cc34)cc2c1,inactive: -5.4%,–
NC(=O)c1ccc(NC(=O)c2ccc3c(c2)OCO3)cc1,–,active: 12.6 µM
O=C(Nc1nc(-c2cccnc2)cs1)c1ccccc1F,–,"inconclusive: 0.01 µM [activator, full curve, poor fit]"
Cc1c(NC(=S)Nc2ccccc2)c(=O)n(-c2ccccc2)n1C,–,"inconclusive: 20 µM [activator, partial curve, poor fit]"
